Source: the supplement of paper PMC10441789
The list shows a part of the results. Antibody binding of pooled human sera (four to six donors per pool; dilution not stated) to peptides of the Trypanosoma cruzi antigen TSSA on microarrays. Quantile-normalised fluorescence in arbitrary units, mean of duplicate arrays; higher = more binding. No active / inactive call. The uninfected pools are read here as the healthy donors of the same country. The strongest signals lie near the top of the scale (about 60,000).

Tests used:
Test in all cases: antibody binding signal (normalised fluorescence) (arbitrary fluorescence units); higher = stronger serum antibody binding to peptide
[1] = tested on: pooled sera of chronic Chagas disease patients, Argentina
Description: (§1)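 Microarray of 15-residue peptides over residues 30-55 of Trypanosoma cruzi TSSAII, each with 1 to 10 substitutions at naturally variable positions, probed with one serum pool per country.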

[2] = tested on: pooled sera of chronic Chagas disease patients, Bolivia
Description: as §1

[3] = tested on: pooled sera of chronic Chagas disease patients, Brazil
Description: as §1

[4] = tested on: pooled sera of chronic Chagas disease patients, Colombia
Description: as §1

[5] = tested on: pooled sera of chronic Chagas disease patients, Mexico
Description: as §1

[6] = tested on: pooled sera of chronic Chagas disease patients, USA
Description: as §1

[7] = tested on: pooled sera of uninfected people, Argentina
Description: as §1

[8] = tested on: pooled sera of uninfected people, Bolivia
Description: as §1

[9] = tested on: pooled sera of uninfected people, Brazil
Description: as §1

[10] = tested on: pooled sera of uninfected people, Mexico
Description: as §1

[11] = tested on: pooled sera of uninfected people, USA
Description: as §1

Sequence | antibody binding signal [1] | antibody binding signal [2] | antibody binding signal [3] | antibody binding signal [4] | antibody binding signal [5] | antibody binding signal [6] | antibody binding signal [7] | antibody binding signal [8] | antibody binding signal [9] | antibody binding signal [10] | antibody binding signal [11]
PSGKEKKAATGGTPS | 5660 | 739 | 5160 | 8240 | 9260 | 5950 | 307 | 147 | 156 | 95.1 | 132
KENKPATGGTPSPSG | 373 | 305 | 1150 | 174 | 604 | 329 | 292 | 316 | 158 | 113 | 181
PPSGKDKKAAAGETP | 938 | 368 | 666 | 1320 | 34300 | 2520 | 185 | 434 | 94.9 | 88.7 | 111
KEKKAAAGGAPSQPG | 156 | 213 | 237 | 1860 | 193 | 288 | 104 | 83.4 | 131 | 85.1 | 108
SGTDKKAATGEAPSP | 20400 | 36600 | 28800 | 1950 | 360 | 25000 | 413 | 131 | 234 | 579 | 175
KDNKAAAGETPSPPG | 252 | 201 | 7380 | 227 | 179 | 702 | 327 | 1940 | 206 | 127 | 1100
GKEKKPAAGGTPSPS | 2870 | 207 | 268 | 2460 | 1710 | 1520 | 92.1 | 84.1 | 551 | 74.8 | 284
GKDKKAATGEAPSQS | 12800 | 5260 | 18000 | 1670 | 1480 | 18300 | 217 | 137 | 290 | 81.4 | 384
SSTPPSGKEKKPAAG | 21200 | 1220 | 4280 | 481 | 27000 | 472 | 676 | 674 | 147 | 152 | 306
KKTAAGEAPSPPGAS | 168 | 298 | 371 | 303 | 212 | 3400 | 306 | 243 | 106 | 101 | 324
KDKKAAAGGAPSQPG | 221 | 188 | 390 | 1490 | 252 | 198 | 113 | 86.8 | 109 | 72.3 | 132
GKEKKTAAGGTPSPS | 1580 | 232 | 216 | 4490 | 746 | 1850 | 128 | 82.7 | 334 | 118 | 114
KEKKPAAGEAPSQPG | 3350 | 2000 | 31900 | 157 | 179 | 11200 | 95.8 | 80.8 | 88.1 | 73.6 | 359
GTDNKTAAGGTPSPS | 1640 | 249 | 24100 | 5090 | 518 | 1360 | 233 | 690 | 2770 | 1690 | 168
KTATGEAPSQSGASS | 13600 | 25300 | 19800 | 104 | 533 | 19000 | 390 | 202 | 177 | 701 | 134
KENKTATGGAPSQSG | 309 | 194 | 246 | 444 | 244 | 248 | 281 | 119 | 140 | 130 | 126
TPPSGKEKKAAAGGT | 4780 | 232 | 369 | 1210 | 12900 | 1740 | 250 | 190 | 651 | 82.6 | 138
TENKTAAGGTPSPSG | 28900 | 418 | 301 | 4070 | 438 | 1470 | 287 | 186 | 968 | 1440 | 211
GTEKKPAAGGAPSPS | 472 | 195 | 464 | 4570 | 755 | 1130 | 201 | 797 | 823 | 257 | 1430
GTEKKPATGGAPSQS | 2360 | 2050 | 4080 | 1380 | 3600 | 1990 | 419 | 1660 | 836 | 396 | 1400
KEKKTATGETPSQPG | 549 | 314 | 21100 | 427 | 317 | 4680 | 229 | 172 | 104 | 155 | 117
PSGKEKKTAAGEAPS | 8640 | 1770 | 8150 | 9160 | 10600 | 9130 | 659 | 494 | 95.9 | 128 | 114
TSSTPPSGTDKKPAA | 40200 | 15700 | 45500 | 12900 | 51300 | 11700 | 1960 | 247 | 202 | 2820 | 562
GTEKKTATGETPSQP | 1090 | 2070 | 30900 | 647 | 889 | 8190 | 261 | 645 | 434 | 288 | 152
DNKTAAGETPSQSGA | 290 | 496 | 2330 | 395 | 267 | 261 | 155 | 237 | 225 | 212 | 148
GTENKTATGGTPSPS | 28800 | 1490 | 1210 | 1500 | 1680 | 1300 | 271 | 481 | 329 | 456 | 166
GTEKKAAAGEAPSQS | 1720 | 6520 | 7230 | 470 | 698 | 10700 | 105 | 978 | 119 | 97.9 | 138

Sequence | antibody binding signal [1] | antibody binding signal [2] | antibody binding signal [3] | antibody binding signal [4] | antibody binding signal [5] | antibody binding signal [6] | antibody binding signal [7] | antibody binding signal [8] | antibody binding signal [9] | antibody binding signal [10] | antibody binding signal [11]
SGKEKKAATGGTPSQ | 2170 | 370 | 2620 | 2590 | 5560 | 5250 | 186 | 92.2 | 176 | 87.4 | 108
KENKPAAGETPSPPG | 245 | 328 | 18800 | 317 | 386 | 4210 | 162 | 341 | 192 | 180 | 1050
GTENKPATGGTPSQS | 48400 | 6730 | 7570 | 3340 | 5580 | 2610 | 594 | 1950 | 899 | 528 | 195
NKAATGETPSPPGAS | 1320 | 3220 | 24100 | 273 | 165 | 8790 | 480 | 1050 | 278 | 173 | 1950
SGTDKKPAAGGAPSP | 620 | 574 | 23000 | 9670 | 2780 | 1760 | 238 | 322 | 214 | 1740 | 245
GTENKAAAGGAPSPP | 41500 | 1340 | 3660 | 7950 | 6690 | 4030 | 224 | 391 | 176 | 147 | 346
DNKAATGGAPSQPGA | 777 | 3850 | 25000 | 636 | 460 | 1820 | 381 | 224 | 411 | 401 | 244
SGTENKPAAGETPSQ | 44000 | 17600 | 36500 | 526 | 1000 | 10200 | 665 | 1320 | 229 | 204 | 123
KENKTATGGAPSQPG | 405 | 318 | 1130 | 573 | 393 | 633 | 268 | 111 | 150 | 195 | 133
EKKPAAGGTPSQPGA | 674 | 263 | 828 | 5740 | 357 | 1240 | 317 | 838 | 3190 | 360 | 949
GTENKPAAGEAPSPP | 44300 | 6100 | 30100 | 535 | 1520 | 14100 | 326 | 1330 | 315 | 130 | 119
KENKPAAGEAPSPPG | 665 | 359 | 29300 | 340 | 441 | 13900 | 195 | 283 | 160 | 116 | 109
SGTENKTAAGGAPSP | 31000 | 4770 | 11100 | 7280 | 1110 | 3070 | 450 | 438 | 482 | 473 | 236
GTEKKTAAGEAPSQP | 3670 | 8360 | 35000 | 697 | 908 | 8560 | 308 | 865 | 205 | 150 | 86
DNKAATGETPSPSGA | 3260 | 6300 | 18700 | 212 | 154 | 12800 | 162 | 221 | 167 | 164 | 1270
KENKTAAGETPSPSG | 200 | 236 | 338 | 688 | 224 | 2150 | 234 | 197 | 126 | 211 | 1680
PSGTEKKAAAGETPS | 15700 | 2880 | 6110 | 3970 | 4400 | 6230 | 568 | 477 | 221 | 342 | 431
TISTPPSGKENKTAA | 17000 | 3140 | 9180 | 1380 | 3490 | 3110 | 4080 | 1390 | 274 | 274 | 621
PPSGTENKPATGGAP | 48100 | 48200 | 48900 | 361 | 4520 | 21000 | 5120 | 2970 | 908 | 804 | 1400
GTDNKTAAGGAPSPS | 384 | 289 | 19600 | 4800 | 909 | 525 | 341 | 654 | 1840 | 368 | 199
TISTPPSGKDNKAAT | 4790 | 480 | 2540 | 374 | 13400 | 1810 | 317 | 307 | 163 | 96.8 | 178
GTEKKPATGGAPSPP | 5350 | 1000 | 2620 | 3430 | 3350 | 3890 | 427 | 1940 | 659 | 401 | 1420
TEKKAATGETPSQPG | 5990 | 3640 | 38700 | 401 | 345 | 11700 | 384 | 337 | 346 | 303 | 329
NKTATGGTPSPSGAS | 627 | 991 | 4600 | 650 | 723 | 775 | 755 | 953 | 472 | 246 | 1400
SGTDNKTAAGGAPSQ | 259 | 475 | 40100 | 6570 | 591 | 329 | 307 | 569 | 1850 | 228 | 219
SGTEKKTATGGTPSQ | 2510 | 904 | 1840 | 6290 | 1570 | 2570 | 306 | 642 | 331 | 279 | 130
ISTPPSGTDNKPAAG | 51400 | 45700 | 50600 | 9420 | 28900 | 34400 | 1500 | 721 | 826 | 1670 | 624
